According to patent publication USRE49949E1, “Reducing risk of contracting clostridium-difficile associated disease” (The Board of Regents of the Nevada System of Higher …, priority 2012, dated 2024):

Test system: C. difficile spores
Experiment: Inhibition of C. difficile spore germination by amino acid and taurocholate analogs
Format: cell-based, Clostridium difficile strain 630
Details: for inhibition of spore germination by amino acid analog: in the presence of taurocholate and glycine (D-alanine: L-alanine and taurocholate); for IC50: spores incubated with bile salt analogs 15 min prior to 6 mM taurocholate and 12 mM glycine, NA = no change in absorbance after 90 minutes, read-out: IC50 (stdev)

SMILES | inhibition of spore germination by amino acid analog | IC50 [µM]
CNCC(=O)O [Compound A11, sarcosine, reference compound] | neither activate nor inhibit | –
C[C@H](CCC(=O)NCCCCC(=O)O)[C@H]1CC[C@H]2[C@@H]3[C@H](O)C[C@@H]4C[C@H](O)CC[C@]4(C)[C@H]3CC[C@]12C [Compound 61] | – | 640
C[C@H](CCC(=O)O)[C@H]1CC[C@H]2[C@@H]3CC[C@@H]4C[C@@H](O)CC[C@]4(C)[C@H]3C[C@H](O)[C@]12C [Compound 84] | – | 780
C[C@H](CCC(=O)NC1CCC(C(=O)O)C1)[C@H]1CC[C@H]2[C@@H]3[C@H](O)C[C@@H]4C[C@H](O)CC[C@]4(C)[C@H]3C[C@H](O)[C@]12C (stereo partly drawn) [Compound 26] | – | 470
C[C@H](CCC(=O)Nc1ccccc1)[C@H]1CC[C@H]2[C@@H]3[C@H](O)C[C@@H]4C[C@H](O)CC[C@]4(C)[C@H]3C[C@H](O)[C@]12C [Compound 21] | – | 270
C[C@H](CCC(=O)NCCCCCC(=O)NCCCCCC(=O)O)[C@H]1CC[C@H]2[C@@H]3[C@H](O)C[C@@H]4C[C@H](O)CC[C@]4(C)[C@H]3CC[C@]12C [Compound 64] | – | 8600
COC(=O)[C@@H](C)[C@H]1CC[C@H]2[C@@H]3[C@H](O)C[C@@H]4C[C@H](O)CC[C@]4(C)[C@H]3C[C@H](O)[C@]12C [Compound 79] | – | 660
C[C@H](CCC(=O)Nc1cccc(C(=O)O)c1)[C@H]1CC[C@H]2[C@@H]3[C@H](O)C[C@@H]4C[C@H](O)CC[C@]4(C)[C@H]3CC[C@]12C [Compound 67] | – | 930
C[C@H](CCC(=O)NCCCCC(=O)O)[C@H]1CC[C@H]2[C@@H]3[C@H](O)C[C@@H]4C[C@H](O)CC[C@]4(C)[C@H]3C[C@H](O)[C@]12C [Compound 14] | – | 5300
Cc1ccc(NC(=O)CC[C@@H](C)[C@H]2CC[C@H]3[C@@H]4[C@H](O)C[C@@H]5C[C@H](O)CC[C@]5(C)[C@H]4CC[C@]23C)cc1C(=O)O [Compound 71] | – | 92
COC(=O)CC[C@@H](C)[C@H]1CC[C@H]2[C@@H]3CC[C@@H]4C[C@H](O)CC[C@]4(C)[C@H]3C[C@H](O)[C@]12C [Compound 85] | – | 97
COC(=O)CC[C@@H](C)[C@H]1CC[C@H]2[C@@H]3CC[C@@H]4C[C@H](O)CC[C@]4(C)[C@H]3C[C@@H](O)[C@]12C [Compound 86] | – | 95
CCOC(=O)CN [Compound A06, glycine ethyl ester, reference compound] | unable to activate or inhibit | –
CN(C)CC(=O)O [Compound A12, N,N-dimethylglycine, reference compound] | neither activate nor inhibit | –
C[C@H](CCC(=O)Nc1ccc(C(=O)O)cc1)[C@H]1CC[C@H]2[C@@H]3[C@H](O)C[C@@H]4C[C@H](O)CC[C@]4(C)[C@H]3C[C@H](O)[C@]12C [Compound 25] | – | 1400
Cc1cc(NC(=O)CC[C@@H](C)[C@H]2CC[C@H]3[C@@H]4[C@H](O)C[C@@H]5C[C@H](O)CC[C@]5(C)[C@H]4CC[C@]23C)cc(S(=O)(=O)O)c1C [Compound 73] | – | 750
C[C@H](CCC(=O)NCCC(=O)O)[C@H]1CC[C@H]2[C@@H]3[C@H](O)C[C@@H]4C[C@H](O)CC[C@]4(C)[C@H]3CC[C@]12C [Compound 60] | – | 3900
Cc1cc(C)c(S(=O)(=O)O)cc1NC(=O)CC[C@@H](C)[C@H]1CC[C@H]2[C@@H]3[C@H](O)C[C@@H]4C[C@H](O)CC[C@]4(C)[C@H]3C[C@H](O)[C@]12C [Compound 40] | – | 5600
C[C@H](CCC(=O)Nc1cccc(C(=O)O)c1)[C@H]1CC[C@H]2[C@@H]3[C@H](O)C[C@@H]4C[C@H](O)CC[C@]4(C)[C@H]3C[C@H](O)[C@]12C [Compound 23] | – | 3100
C[N+](C)(C)CC(=O)O [Compound A13, betaine, reference compound] | neither activate nor inhibit | –

SMILES | inhibition of spore germination by amino acid analog | IC50 [µM]
C[C@H](CCC(=O)O)[C@H]1CC[C@H]2[C@@H]3CC[C@@H]4C[C@H](O)CC[C@]4(C)[C@H]3C[C@H](O)[C@]12C [Compound 82] | – | 190
C[C@H](CCC(=O)Nc1cccc(S(=O)(=O)O)c1)[C@H]1CC[C@H]2[C@@H]3[C@H](O)C[C@@H]4C[C@H](O)CC[C@]4(C)[C@H]3CC[C@]12C [Compound 65] | – | 6500
COC(=O)CC[C@@H](C)[C@H]1CC[C@H]2[C@@H]3C[C@H](O)[C@@H]4C[C@H](O)CC[C@]4(C)[C@H]3CC[C@]12C [Compound 88] | – | 37
C[C@H](CCC(=O)NCCCCC(=O)NCCCCC(=O)O)[C@H]1CC[C@H]2[C@@H]3[C@H](O)C[C@@H]4C[C@H](O)CC[C@]4(C)[C@H]3CC[C@]12C [Compound 62] | – | 1900
C[C@@H](N)C(=O)O [Compound A17, D-alanine, reference compound] | unable to inhibit | –
NCC(N)=O [Compound A07, glycinamide, reference compound] | unable to activate or inhibit | –
COC(=O)C[C@@H](C)[C@H]1CC[C@H]2[C@@H]3[C@H](O)C[C@@H]4C[C@H](O)CC[C@]4(C)[C@H]3C[C@H](O)[C@]12C [Compound 78] | – | 150
NCC(=O)NO [Compound A08, glycine hydroxamate, reference compound] | unable to activate or inhibit | –
C[C@H](CCC(=O)NCCS(=O)O)[C@H]1CC[C@H]2[C@@H]3[C@H](O)C[C@@H]4C[C@H](O)CC[C@]4(C)[C@H]3CC[C@]12C [Compound 59] | – | 5300
Cc1cc(C)c(S(=O)(=O)O)cc1NC(=O)CC[C@@H](C)[C@H]1CC[C@H]2[C@@H]3[C@H](O)C[C@@H]4C[C@H](O)CC[C@]4(C)[C@H]3CC[C@]12C [Compound 72] | – | 920
COC(=O)CC[C@@H](C)[C@H]1CC[C@H]2[C@@H]3CC[C@@H]4C[C@@H](O)CC[C@]4(C)[C@H]3CC[C@]12C [Compound 91] | – | 1300
CCOC(=O)CC[C@@H](C)[C@H]1CC[C@H]2[C@@H]3[C@H](O)C[C@@H]4C[C@H](O)CC[C@]4(C)[C@H]3C[C@H](O)[C@]12C [Compound 80] | – | 8.2
COC(=O)CC[C@@H](C)[C@H]1CC[C@H]2[C@@H]3CC[C@@H]4CCCC[C@]4(C)[C@H]3C[C@H](O)[C@]12C [Compound 90] | – | 370
Cc1ccc(NC(=O)CC[C@@H](C)[C@H]2CC[C@H]3[C@@H]4[C@H](O)C[C@@H]5C[C@H](O)CC[C@]5(C)[C@H]4C[C@H](O)[C@]23C)cc1C(=O)O [Compound 39] | – | 11000
C[C@H](CCC(=O)Nc1cccc(N)c1)[C@H]1CC[C@H]2[C@@H]3[C@H](O)C[C@@H]4C[C@H](O)CC[C@]4(C)[C@H]3C[C@H](O)[C@]12C [Compound 34] | – | 530
CC(CCCO)C1CCC2C3C(O)CC4CC(O)CCC4(C)C3CC(O)C12C (stereo not drawn) [Compound 76] | – | 330
COC(=O)CC[C@@H](C)[C@H]1CC[C@H]2[C@@H]3[C@H](O)C[C@@H]4C[C@H](O)CC[C@]4(C)[C@H]3C[C@H](O)[C@]12C [Compound 77] | – | 59
C[C@H](CCC(=O)O)[C@H]1CC[C@H]2[C@@H]3C[C@H](O)[C@@H]4C[C@H](O)CC[C@]4(C)[C@H]3CC[C@]12C [Compound 87] | – | 1240
C[C@H](CCC(=O)NCCCCCC(=O)O)[C@H]1CC[C@H]2[C@@H]3[C@H](O)C[C@@H]4C[C@H](O)CC[C@]4(C)[C@H]3CC[C@]12C [Compound 63] | – | 1100
